# Reference: PubChem BioAssay AID588591 (National Center for Advancing Translational Sciences (NCATS), 2011)
# Out of some 390,000 compounds screened, about 4,700 (1.2%) were called active. This list was built around the results that the source calls inconclusive (neither active nor inactive); the mix of calls is not that of the screen. The call rests on the fitted dose curve; in most records, active means well fitted inhibition curve with a large enough effect; inconclusive means small, poorly fitted or top-dose-only effect, or another doubt; inactive means no such curve, though single readings can be large or run the other way. Potencies of inconclusive entries are doubtful fits and often do not repeat.
# Target: DNA polymerase eta (Homo sapiens) (UniProt Q9Y253)
# Sequence of UniProt Q9Y253 (Q9Y253 whole entry, looked up): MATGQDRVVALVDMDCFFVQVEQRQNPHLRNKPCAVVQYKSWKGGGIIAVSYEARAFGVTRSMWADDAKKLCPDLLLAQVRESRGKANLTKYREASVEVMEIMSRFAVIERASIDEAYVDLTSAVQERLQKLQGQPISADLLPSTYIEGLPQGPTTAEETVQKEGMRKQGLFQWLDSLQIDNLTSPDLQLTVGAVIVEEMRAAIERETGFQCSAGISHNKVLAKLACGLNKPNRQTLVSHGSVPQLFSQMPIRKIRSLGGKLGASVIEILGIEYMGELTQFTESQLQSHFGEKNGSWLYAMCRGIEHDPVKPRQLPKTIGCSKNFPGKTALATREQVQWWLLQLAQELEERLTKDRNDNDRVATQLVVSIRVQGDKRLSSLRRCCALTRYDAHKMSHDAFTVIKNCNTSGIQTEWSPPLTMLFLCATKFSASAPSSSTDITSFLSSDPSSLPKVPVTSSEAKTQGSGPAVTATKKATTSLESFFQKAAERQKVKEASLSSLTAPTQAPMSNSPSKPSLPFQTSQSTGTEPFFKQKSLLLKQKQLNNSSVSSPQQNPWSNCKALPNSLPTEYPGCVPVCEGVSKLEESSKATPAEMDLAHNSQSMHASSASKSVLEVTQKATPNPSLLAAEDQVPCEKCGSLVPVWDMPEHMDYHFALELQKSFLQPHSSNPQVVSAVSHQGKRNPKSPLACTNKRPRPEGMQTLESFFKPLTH
# Experiment: qHTS for Inhibitors of Polymerase Eta
# Details: recombinant Pol eta, fluorescent DNA replication assay; series mostly up to 114 µM; activity change, negative = inhibition: at the top concentration
# Summary of the method: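 Pol eta at 10 nM preincubated with compounds 15 min at room temperature; reaction started with fluorescent substrate (50 nM final) and read kinetically at 0 and 10 min.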
# On the % scale 0 is the no-effect control and ±100 the full control effect; potency means the concentration at half of the fitted maximal effect; tags describe the fitted curve by direction and shape.
SMILES,Potency,"activity change, negative = inhibition"
O=c1c(Cl)c2oc3ccccc3nc-2c2ccccc12,"inconclusive: 50.1 µM [inhibitor, partial curve, poor fit]",
CNC(=O)c1nnc(Cc2ccc(F)cc2)o1,"inconclusive: 89.1 µM [inhibitor, partial curve, poor fit]",
CCOc1cc(/C=C2\C(=N)N3N=C(N4CCCCC4)SC3=NC2=O)ccc1OC(=O)c1ccco1,"inconclusive: 56.2 µM [inhibitor, partial curve]",
O=C(C1COc2ccccc2O1)N1CCc2ccccc21 (stereo not given),active: 79.4 µM,
CCOCCCNC(=O)c1c[nH]c2ccc(S(=O)(=O)Nc3cccc(Cl)c3C)cc2c1=O,active: 31.6 µM,
O=C(N/N=C/c1ccncc1)c1cc2c(ccc3ccccc32)o1,"inconclusive: 35.5 µM [inhibitor, partial curve, poor fit]",
CC(C)CSC1=NSC2=NC(=O)/C(=C\c3cccs3)C(=N)N12,"inconclusive: 63.1 µM [inhibitor, partial curve, poor fit]",
Cc1c(NC(=O)c2ccccc2)cc(C(C)C)c(O)c1S(=O)(=O)c1ccc(Cl)cc1,"inconclusive: 100 µM [inhibitor, partial curve, poor fit]",
CCCCN(C1CCS(=O)(=O)C1)S(=O)(=O)c1ccc(C(C)C)cc1 (stereo not given),"inconclusive: 79.4 µM [inhibitor, partial curve, poor fit]",
CN(c1ccccc1C(=O)O)S(=O)(=O)c1ccc2[nH]c(=O)[nH]c2c1,"inconclusive: 35.5 µM [inhibitor, single point]",
COc1ccc(-c2n[nH]c(=S)n2/N=C/C=C\c2ccccc2OC)cc1,"inconclusive: 22.4 µM [inhibitor, partial curve, poor fit]",
C[C@@H]1CC[C@H](O)/C=C/C(=O)O[C@H](C)CC[C@H](O)/C=C/C(=O)O1,"inconclusive: 15.8 µM [inhibitor, partial curve, poor fit]",
COc1ccc(S(=O)(=O)NC(CC(=O)O)c2ccco2)cc1 (stereo not given),"inconclusive: 39.8 µM [inhibitor, partial curve, poor fit]",
CN(Cc1nc(-c2ccc(Cl)cc2)no1)C(=O)c1ccc2c(c1)OCO2,,inactive: -27.9%
Cc1c(C(=O)C(C)C)n(C)c2ccccc12,"inconclusive: 89.1 µM [inhibitor, partial curve, poor fit]",
COc1cccc(C(=O)NC2C(=O)N3C(C(=O)O)=C(COC(C)=O)CSC23)c1 (stereo not given),active: 50.1 µM,
COc1ccc(-c2cc(-c3nnc(COC(=O)c4ccncc4)o3)c3ccccc3n2)cc1OC,"inconclusive: 79.4 µM [inhibitor, partial curve, poor fit]",
N#CCC(=O)Nc1ccc(C(=O)OCC(=O)c2ccc3c(c2)NC(=O)CO3)cc1,"inconclusive: 56.2 µM [inhibitor, partial curve, poor fit]",
O=[N+]([O-])c1ccc(/C=N/Nc2nc(-c3ccccc3)c3cc(Br)ccc3n2)o1,"inconclusive: 14.1 µM [inhibitor, partial curve, poor fit]",
CC(C)CC(=O)Nc1ccc(S(=O)(=O)NCc2ccco2)cc1,"inconclusive: 31.6 µM [inhibitor, single point]",
CCN(CC)S(=O)(=O)c1ccc(OC)c(NC(=S)Nc2ccc(C)c(C)c2)c1,"inconclusive: 39.8 µM [inhibitor, partial curve, poor fit]",
Cc1[nH]n(-c2cccc3ccccc23)c(=O)c1/C=N/c1sc2c(c1C#N)CCC2,"inconclusive: 20 µM [inhibitor, single point]",

SMILES,Potency,"activity change, negative = inhibition"
COc1cccc(OCC(O)CNC(=O)c2oc3ccc(C)cc3c2C)c1 (stereo not given),"inconclusive: 50.1 µM [inhibitor, partial curve, poor fit]",
CS(=O)(=O)c1nc(S(=O)(=O)c2ccc(Cl)cc2)c(NCCN2CCOCC2)s1,"inconclusive: 89.1 µM [inhibitor, single point]",
N#Cc1c(-c2ccco2)nc(SCC(=O)Nc2cccc(Cl)c2)[nH]c1=O,"inconclusive: 89.1 µM [inhibitor, single point]",
Cc1cc(C)n(-c2ccc(Oc3ccccc3)c(S(=O)(=O)O)c2)n1,active: 50.1 µM,
O=C(O)c1cc(N/N=C/c2ccc(N3CCOCC3)cc2)ccc1Cl,active: 50.1 µM,
CC1=N/C(=C/c2ccco2)C(=O)O1,active: 10 µM,
O=C(O)C1C(c2ccccc2)C(C(=O)OCc2ccco2)C1c1ccccc1 (stereo not given),active: 79.4 µM,
CC(C)S(=O)(=O)c1nsc2nc(=O)c(/C=C3\C=Nc4ccccc43)c(N)n12,active: 31.6 µM,
N=c1c(C(=O)NCc2ccc3c(c2)OCO3)cc2c(=O)n3ccccc3nc2n1Cc1cccnc1,"inconclusive: 100 µM [inhibitor, single point]",
O=C(Nc1ccc(C(F)(F)F)cc1)c1ccc(NC(=O)C2CCCO2)cc1 (stereo not given),"inconclusive: 50.1 µM [inhibitor, partial curve, poor fit]",
COc1cc(/C=C2/C(=N)N3C(=NC2=O)SN=C3S(C)(=O)=O)ccc1OS(=O)(=O)c1ccc(C)cc1,active: 79.4 µM,
CCOC(=O)c1c(C)[nH]c(C)c1C(=O)COC(=O)/C=C/c1ccco1,"inconclusive: 39.8 µM [inhibitor, single point]",
Cc1ccc(-c2nc(N)sc2-c2ccccc2)cc1C,"inconclusive: 39.8 µM [inhibitor, partial curve, poor fit]",
O=C(O)c1cccc(Nc2nc(-c3ccc([N+](=O)[O-])cc3)nc3ccccc23)c1,"inconclusive: 44.7 µM [inhibitor, partial curve, poor fit]",
O=C(Cc1ccccc1Cl)NC1(O)C(=O)c2ccccc2C1=O,"inconclusive: 89.1 µM [inhibitor, single point]",
COC(=O)c1cc2c(=O)c3ccccc3oc2nc1/C=C/N(C)C,"inconclusive: 17.8 µM [inhibitor, full curve, poor fit]",
CCOc1ccc(N2CC(c3nc4ccccc4n3CCOc3ccc(OC)cc3)CC2=O)cc1 (stereo not given),"inconclusive: 89.1 µM [inhibitor, single point]",
COc1ccc(-c2nc3sc(CCNC(=O)C(C)(C)C)c(C)n3n2)cc1,"inconclusive: 100 µM [inhibitor, partial curve, poor fit]",
Cc1ccc2nc(SCc3nc4cc(Cl)ccc4c(=O)[nH]3)[nH]c2c1,"inconclusive: 56.2 µM [inhibitor, partial curve, poor fit]",
CCOc1ccc(-c2nnc(SCC(=O)Nc3ccc4c(c3)c3ccccc3n4CC)n2N)cc1,"inconclusive: 12.6 µM [inhibitor, partial curve]",
COc1cccc(NC(=S)NC(=O)/C=C/c2ccco2)c1,active: 44.7 µM,
COc1ccc(NC(=O)CCCN2C(=O)/C(=C\c3ccco3)SC2=S)cc1,"inconclusive: 28.2 µM [inhibitor, single point]",

SMILES,Potency,"activity change, negative = inhibition"
O=C1OC(c2ccc3ccccc3c2O)(c2ccc3ccccc3c2O)c2ccccc21,active: 25.1 µM,
CC(C)CN(c1ccccc1)S(=O)(=O)c1nnc(NC(=O)C2CCCCC2)s1,"inconclusive: 100 µM [inhibitor, partial curve, poor fit]",
Cc1c(NC(=O)Nc2cccc(C(F)(F)F)c2)sc2nc3n(c(=O)c12)CCC(C)CC3 (stereo not given),,inactive: -1.88%
CC1=NN(c2ccc(S(=O)(=O)O)cc2C)C(=O)C1,"inconclusive: 89.1 µM [inhibitor, single point]",
O=C(Nc1nc2c(Cl)cccc2s1)c1ccc([N+](=O)[O-])o1,active: 50.1 µM,
S=c1[nH]nc(-c2cc(-c3ccccc3)n[nH]2)n1/N=C/c1ccc(Cl)c(Cl)c1,"inconclusive: 56.2 µM [inhibitor, partial curve, poor fit]",
O=C(Cn1cnc2scc(-c3cccc([N+](=O)[O-])c3)c2c1=O)NCc1ccco1,active: 20 µM,
Cn1cc(S(=O)(=O)N2CCCC2)cc1C(=O)O,active: 22.4 µM,
O=C(CSc1ccc(Cl)cc1)NC(=O)NC1CCCC1,"inconclusive: 3.98 µM [inhibitor, partial curve, poor fit]",
Nc1ccc(S(=O)(=O)Nc2nc3ccccc3o2)cc1,active: 44.7 µM,
CC(=O)COc1ccc2c(c1C)O/C(=C\c1ccco1)C2=O,active: 22.4 µM,
COc1ccc(N(Cc2cc(=O)[nH]c3ccccc23)C(=O)CCl)cc1,active: 35.5 µM,
O=c1[nH]nc(N2CCOCC2)c(=O)[nH]1,"inconclusive: 100 µM [inhibitor, partial curve, poor fit]",
Cc1ccc(NC(=O)Cn2c(=O)cnc3ccccc32)cc1S(=O)(=O)N1CCOCC1,,inactive: -4.72%
O=C(O)CC(c1cccc2ccccc12)n1cccc1 (stereo not given),"inconclusive: 17.8 µM [inhibitor, full curve, poor fit]",
CCOC(=O)C1=C(CN(CC)Cc2ccccc2)NC(=O)NC1c1ccc(OC)cc1 (stereo not given),,inactive: -13.3%
Cc1ccc(-c2nc3ccccc3s2)cc1NC(=S)NC(=O)/C=C/c1ccco1,active: 20 µM,
Cc1ccc(OC(=O)CSc2nnc(-c3ccc4c(c3)OCO4)o2)c(C)c1,,inactive: -7.89%
CCC(C)/C(C)=N/Nc1ccc(S(N)(=O)=O)cc1[N+](=O)[O-] (stereo not given),active: 89.1 µM,
O=C1NC(=O)/C(=C\c2ccc(Br)o2)S1,active: 22.4 µM,
CCOC(=O)c1sc(N2C(=O)C(O)=C(C(=O)c3ccco3)C2c2ccc(C)o2)nc1C (stereo not given),"inconclusive: 31.6 µM [inhibitor, full curve]",
